In the supplement of paper PMC3334620:
In all, about 33,000 sequences were measured (“E-score (-0.5 to 0.5)”: median about -0.053, highest 2% from about 0.37 on). Some of the results follow.

Each sequence was assayed against Hap1 (UniProt P0CE41) (assay: PBM E-score (8-mer binding enrichment) (E-score (-0.5 to 0.5)); higher = stronger / more preferred TF binding; most listed sequences are background and not binding sites). Settings: protein concentration: 200 nM; construct: GST-DNA-binding domain.
Method: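 Universal 'all 10-mer' protein binding microarrays (Agilent AMADID 015681) probed with GST-tagged S. cerevisiae TFs (full-length or DBD) made by in vitro transcription/translation (PURExpress), about 100-200 nM. Bound TF was detected with fluorescent anti-GST. Each ungapped 8-mer (which stands for itself and its reverse complement) is scored by the PBM enrichment score (E-score), a modified Wilcoxon-Mann-Whitney statistic from -0.5 to +0.5, computed with the Universal PBM Analysis Suite. Scale: above 0.35 generally sequence-specific binding.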

Chain of UniProt P0CE41 (P0CE41 whole entry, the tested form may be a part): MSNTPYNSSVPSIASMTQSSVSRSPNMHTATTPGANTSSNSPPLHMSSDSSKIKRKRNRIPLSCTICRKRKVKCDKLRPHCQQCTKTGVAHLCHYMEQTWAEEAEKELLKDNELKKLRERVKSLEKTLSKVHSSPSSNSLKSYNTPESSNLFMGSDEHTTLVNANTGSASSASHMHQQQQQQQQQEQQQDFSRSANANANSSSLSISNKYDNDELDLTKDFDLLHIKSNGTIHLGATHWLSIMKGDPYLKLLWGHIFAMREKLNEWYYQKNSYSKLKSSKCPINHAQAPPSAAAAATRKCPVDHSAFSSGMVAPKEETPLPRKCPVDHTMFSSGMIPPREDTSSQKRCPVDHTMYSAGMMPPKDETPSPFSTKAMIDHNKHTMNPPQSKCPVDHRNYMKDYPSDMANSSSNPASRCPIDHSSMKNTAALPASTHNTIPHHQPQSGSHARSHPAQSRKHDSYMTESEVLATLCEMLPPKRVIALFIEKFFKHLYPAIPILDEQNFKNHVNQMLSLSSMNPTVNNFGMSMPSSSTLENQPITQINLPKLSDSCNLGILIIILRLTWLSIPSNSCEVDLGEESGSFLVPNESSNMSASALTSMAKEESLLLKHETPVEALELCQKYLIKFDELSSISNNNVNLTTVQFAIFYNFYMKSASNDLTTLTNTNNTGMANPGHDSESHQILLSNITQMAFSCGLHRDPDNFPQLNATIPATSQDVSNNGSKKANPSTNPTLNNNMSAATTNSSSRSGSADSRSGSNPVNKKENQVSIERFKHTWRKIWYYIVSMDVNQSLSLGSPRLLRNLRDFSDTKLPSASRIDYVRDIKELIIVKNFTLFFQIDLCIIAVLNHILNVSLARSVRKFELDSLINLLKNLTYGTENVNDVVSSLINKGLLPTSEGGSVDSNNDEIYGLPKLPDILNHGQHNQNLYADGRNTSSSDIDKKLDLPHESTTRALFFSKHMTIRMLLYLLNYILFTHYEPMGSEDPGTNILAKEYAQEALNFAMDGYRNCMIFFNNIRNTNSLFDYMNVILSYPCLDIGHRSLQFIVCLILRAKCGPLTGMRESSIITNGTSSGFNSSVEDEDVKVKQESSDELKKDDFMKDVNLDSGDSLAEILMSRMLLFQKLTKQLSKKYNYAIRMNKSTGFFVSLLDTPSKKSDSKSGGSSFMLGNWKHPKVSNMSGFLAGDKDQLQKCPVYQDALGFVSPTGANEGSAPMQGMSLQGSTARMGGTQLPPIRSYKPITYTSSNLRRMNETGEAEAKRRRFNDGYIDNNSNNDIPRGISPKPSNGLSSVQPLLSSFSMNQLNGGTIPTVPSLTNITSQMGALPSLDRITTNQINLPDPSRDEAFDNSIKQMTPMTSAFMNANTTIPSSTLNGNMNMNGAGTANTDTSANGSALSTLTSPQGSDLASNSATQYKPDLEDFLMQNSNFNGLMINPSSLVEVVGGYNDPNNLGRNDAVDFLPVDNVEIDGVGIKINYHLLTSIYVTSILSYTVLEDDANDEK

| Sequence | PBM E-score |
| --- | --- |
| AAAAACAA | 0.0441 |
| CGTCCTCA | -0.196 |
| GACAACTC | 0.169 |
| ACCCCCTC | -0.138 |
| CCATGGTC | -0.239 |
| ATGCAGAG | -0.179 |
| ATGGCGAA | 0.115 |
| CAGGTGGC | -0.151 |
| ATAGTTGC | 0.00283 |
| ACTTGAAT | -0.116 |
| ACCAGCCG | 0.147 |
| CGTAGTCA | -0.182 |
| TACAGAAA | -0.0305 |
| CGACCTCC | 0.143 |
| CCAGTTCA | 0.0993 |
| GAGGATAC | -0.193 |
| CCTCAGTA | -0.18 |
| AATCATTA | -0.221 |
| CAAGACTC | -0.145 |
| CCGGTCAA | 0.323 |
| CGGCACCC | 0.051 |
| CATCGCGA | 0.0702 |
| GGAGGAAC | 0.107 |
| CGGTCAAA | 0.269 |

| Sequence | PBM E-score |
| --- | --- |
| ATAAGGCG | -0.185 |
| AGCTCAAA | 0.0384 |
| CGACGTGA | -0.119 |
| ATCTCAAG | -0.179 |
| AGGCTTGA | -0.199 |
| CCGCTCAA | 0.0207 |
| GCCTCCGA | 0.123 |
| ATCAGCGC | 0.0985 |
| AGACACTG | -0.266 |
| CTGCATCA | -0.337 |
| AAAGGGGT | -0.326 |
| CCTACTTC | -0.139 |
| ATATACAC | -0.027 |
| AACAACGG | 0.214 |
| GATCGGGA | 0.136 |
| CTAAATAG | -0.263 |
| AGTCAATG | -0.261 |
| AGGGGAAG | -0.261 |
| CCTGTGTC | -0.15 |
| CGTAGTAC | -0.00176 |
| ATCTGACA | -0.316 |
| AGCTCTCG | 0.111 |
| CCATGTAG | -0.0462 |
| AATGCCCT | -0.166 |

| Sequence | PBM E-score |
| --- | --- |
| AAGAAAGA | -0.104 |
| CTAGAAAC | -0.298 |
| GGTGCCGA | 0.243 |
| TGATCGCA | -0.105 |
| ACGGTCGG | 0.225 |
| AGATGAGG | -0.145 |
| AGGAGTGC | -0.0701 |
| GAAACCTC | -0.00121 |
| CAGGTAAC | -0.108 |
| CGTATCTA | -0.0509 |
| ACAGAAAC | -0.164 |
| CCCTCAAC | -0.0645 |
| CGATATCG | 0.388 |
| AAGCCATT | -0.153 |
| AACTATTG | -0.166 |
| TTACGAAA | -0.0562 |
| AGTAACCC | -0.0672 |
| CCCAAAGC | -0.136 |
| CCTCTCCG | 0.106 |
| AGTGACAA | -0.26 |
| AGTAGGCA | -0.0521 |
| ACGACTCG | -0.0604 |
| TCACGACA | -0.24 |
| AGGAGGCC | -0.254 |

| Sequence | PBM E-score |
| --- | --- |
| CTCGGGTC | 0.286 |
| GAATATAA | -0.00181 |
| CGGTAATA | 0.408 |
| ATAGCTTC | -0.0479 |
| GATACTAC | 0.205 |
| ATTCCAAC | -0.0865 |
| GCCCGGCC | 0.329 |
| AAACATTC | -0.152 |
| GGCGGATA | 0.284 |
| AGATTAGG | 0.0128 |
| GCCAACCA | 0.00652 |
| CGTGCGTA | 0.0451 |
| AGCCGGAA | 0.371 |
| ACGTAGCA | -0.22 |
| AAGGTTAA | -0.0858 |
| CGACGACC | 0.251 |
| CGCCTTCC | 0.0965 |
| AGCCTTTG | -0.236 |
| ACAGCCGA | 0.282 |
| AACGGAAT | 0.306 |
| CGAGCACA | 0.156 |
| CGCGCTAA | 0.165 |
